The list shows a part of the results.
Columns and labels:
HSkMC = human skeletal muscle cells; assay: cytotoxicity call (relative viability < 0.9); settings: 10 µM
HepG2 = assay: cytotoxicity call (relative viability < 0.9); settings: 10 µM
S. aureus RN4220 = assay: growth inhibition call (relative growth <= 0.2); settings: 50 µM

Cn1cnc(S(=O)(=O)N2C[C@@H](O)COC[C@@H]3O[C@H](CC(=O)N4CCN(c5ccccc5)CC4)CC[C@H]32)c1
inactive: cytotoxicity call (HSkMC) | cytotoxicity call (HepG2) | growth inhibition call (S. aureus RN4220)

CC(C)N(CCCNC(=O)Nc1ccc(C(C)(C)C)cc1)C[C@H]1O[C@@H](n2ccc3c(N)ncnc32)[C@H](O)[C@@H]1O
inactive: cytotoxicity call (HSkMC) | cytotoxicity call (HepG2) | growth inhibition call (S. aureus RN4220)

COCC#Cc1ccc2c(c1)O[C@H](CN(C)S(=O)(=O)c1cccc(F)c1)[C@H](C)CN([C@@H](C)CO)S2(=O)=O
inactive: cytotoxicity call (HSkMC) | cytotoxicity call (HepG2) | growth inhibition call (S. aureus RN4220)

Cl.Nc1ncnc(Nc2ccc(Cl)cc2)n1
inactive: cytotoxicity call (HSkMC) | cytotoxicity call (HepG2) | growth inhibition call (S. aureus RN4220)

C[C@@H]1CCCCO[C@H](CN(C)C(=O)Cc2ccccc2)[C@H](C)CN([C@H](C)CO)C(=O)c2cc(NS(=O)(=O)c3ccc(Cl)cc3)ccc2O1
inactive: cytotoxicity call (HSkMC) | cytotoxicity call (HepG2) | growth inhibition call (S. aureus RN4220)

O=C(C[C@H]1C[C@H]2c3cc(NS(=O)(=O)c4ccc(F)cc4)ccc3O[C@H]2[C@@H](CO)O1)NC1CCCCC1
inactive: cytotoxicity call (HSkMC) | cytotoxicity call (HepG2) | growth inhibition call (S. aureus RN4220)

CC1OC(OCC2OC(Oc3c(-c4ccc(OCCO)c(OCCO)c4)oc4cc(OCCO)cc(O)c4c3=O)C(O)C(O)C2O)C(O)C(O)C1O (stereo unspecified)
inactive: cytotoxicity call (HSkMC) | cytotoxicity call (HepG2) | growth inhibition call (S. aureus RN4220)

C1COC[C@H](c2nn[nH]n2)N1
inactive: cytotoxicity call (HSkMC) | cytotoxicity call (HepG2) | growth inhibition call (S. aureus RN4220)

CN1CCN(C(=O)C[C@H]2C=C[C@@H](NS(=O)(=O)c3cccc(F)c3)[C@@H](CO)O2)CC1
inactive: cytotoxicity call (HSkMC) | cytotoxicity call (HepG2) | growth inhibition call (S. aureus RN4220)

COCC#Cc1cnc2c(c1)C(=O)N([C@@H](C)CO)C[C@@H](C)[C@@H](CN(C)C(=O)Nc1ccccc1OC)O2
inactive: cytotoxicity call (HSkMC) | cytotoxicity call (HepG2) | growth inhibition call (S. aureus RN4220)

C[C@@H]1CN([C@@H](C)CO)C(=O)Cc2cc(NS(=O)(=O)c3ccc(Cl)cc3)ccc2O[C@@H]1CN(C)C(=O)Nc1ccc(C(F)(F)F)cc1
inactive: cytotoxicity call (HSkMC) | cytotoxicity call (HepG2) | growth inhibition call (S. aureus RN4220)

C[C@H](CO)N1C[C@H](C)[C@@H](CN(C)Cc2ccc(Cl)c(Cl)c2)Oc2ccc(NC(=O)C3CCCCC3)cc2C1=O
inactive: cytotoxicity call (HSkMC) | cytotoxicity call (HepG2) | growth inhibition call (S. aureus RN4220)

COCC(=O)N(C)C[C@@H]1Oc2cc(C#Cc3ccccc3)ccc2S(=O)(=O)N([C@@H](C)CO)C[C@@H]1C
inactive: cytotoxicity call (HSkMC) | cytotoxicity call (HepG2) | growth inhibition call (S. aureus RN4220)

C[C@H](CO)N1C[C@H](C)[C@H](CN(C)S(=O)(=O)c2cn(C)cn2)OCc2ccccc2-c2c(n(C)c3ccccc23)C1=O
inactive: cytotoxicity call (HSkMC) | cytotoxicity call (HepG2) | growth inhibition call (S. aureus RN4220)

C[C@@H]1CN([C@@H](C)CO)C(=O)c2cc(NC(=O)C3CC3)ccc2O[C@@H]1CN(C)C(=O)Nc1ccc2c(c1)OCO2
inactive: cytotoxicity call (HSkMC) | cytotoxicity call (HepG2) | growth inhibition call (S. aureus RN4220)

COc1ccc(CCNC(=O)[C@@]2(Sc3ccc(C)cc3)CC(=O)N(Cc3cc(C(F)(F)F)cc(C(F)(F)F)c3)[C@@H]2c2ccc(CO)cc2)cc1
inactive: cytotoxicity call (HSkMC) | cytotoxicity call (HepG2) | growth inhibition call (S. aureus RN4220)

C[C@@H]1CCCCO[C@H](CN(C)S(=O)(=O)c2cn(C)cn2)[C@H](C)CN([C@H](C)CO)C(=O)c2cc(NS(C)(=O)=O)ccc2O1
inactive: cytotoxicity call (HSkMC) | cytotoxicity call (HepG2) | growth inhibition call (S. aureus RN4220)

C[C@@H]1CN([C@@H](C)CO)C(=O)c2cc(NC(=O)C3CCCCC3)ccc2O[C@@H](C)CCCCO[C@H]1CN(C)C(=O)CCC(F)(F)F
inactive: cytotoxicity call (HSkMC) | cytotoxicity call (HepG2) | growth inhibition call (S. aureus RN4220)

COc1ccc(S(=O)(=O)N(C)C[C@@H]2Oc3ccc(NS(C)(=O)=O)cc3CC(=O)N([C@@H](C)CO)C[C@H]2C)cc1
inactive: cytotoxicity call (HSkMC) | cytotoxicity call (HepG2) | growth inhibition call (S. aureus RN4220)

C[C@@H]1CCCCO[C@H](CN(C)Cc2ccc(C(F)(F)F)cc2)[C@@H](C)CN([C@H](C)CO)C(=O)c2cc(NC(=O)CCC(F)(F)F)ccc2O1
inactive: cytotoxicity call (HSkMC) | cytotoxicity call (HepG2) | growth inhibition call (S. aureus RN4220)

CN(C)C(=O)C[C@H]1CC[C@@H]2[C@H](COC[C@@H](O)CN2S(=O)(=O)c2ccccc2)O1
inactive: cytotoxicity call (HSkMC) | cytotoxicity call (HepG2) | growth inhibition call (S. aureus RN4220)

C[C@@H]1CN([C@H](C)CO)C(=O)c2cccc(NC(=O)Nc3ccc(F)cc3)c2O[C@@H]1CN(C)S(C)(=O)=O
inactive: cytotoxicity call (HSkMC) | cytotoxicity call (HepG2) | growth inhibition call (S. aureus RN4220)

COc1cc2c(cc1OC)CN(C(=O)[C@@H]1[C@H]3C(=O)O[C@H](c4ccccc4)[C@H](c4ccccc4)N3[C@H](c3ccc(O)cc3)[C@@]13C(=O)Nc1ccc(C#CC4(O)CCCCCC4)cc13)CC2
inactive: cytotoxicity call (HSkMC) | cytotoxicity call (HepG2) | growth inhibition call (S. aureus RN4220)

O=C(c1cccnc1)N1C[C@H]2[C@@H](c3ccccc31)[C@@H](CO)N2C(=O)CN1CCOCC1
inactive: cytotoxicity call (HSkMC) | cytotoxicity call (HepG2) | growth inhibition call (S. aureus RN4220)

COc1ccc2c3c(n(c2c1)C)[C@@H](CO)N(C[C@]13CCN(CC1)C(=O)c1cnccn1)C(=O)c1cnccn1
inactive: cytotoxicity call (HSkMC) | cytotoxicity call (HepG2) | growth inhibition call (S. aureus RN4220)

C[C@H]1CCCCO[C@@H](CN(C)C(=O)Nc2ccc(C(F)(F)F)cc2)[C@@H](C)CN([C@@H](C)CO)C(=O)c2cc(NC(=O)Nc3ccc(C(F)(F)F)cc3)ccc2O1
inactive: cytotoxicity call (HSkMC) | cytotoxicity call (HepG2) | growth inhibition call (S. aureus RN4220)

C[C@@H]1CN([C@H](C)CO)C(=O)c2cc(NC(=O)Nc3ccc(C(F)(F)F)cc3)ccc2O[C@@H](C)CCCCO[C@@H]1CN(C)C(=O)NC1CCCCC1
inactive: cytotoxicity call (HSkMC) | cytotoxicity call (HepG2) | growth inhibition call (S. aureus RN4220)

From the antibiotic and cytotoxicity screens of Wong et al. (2023)
